The test system of this assay is BALB/c, C3H/HeJ, C57BL/6 mice. Nature of the assay: Serum polypeptide-specific IgG ELISA after immunization of mice. It counts as in vivo. The text has this:
To investigate the ability of lipid-tailed polypeptides to induce systemic antibody responses using mucosal route, the LSA3-NRII lipid-tailed polypeptide was administrated either intranasally (I.N.) or sub-lingually (S.L.) in BALB/c, C3R/HeJ which were found previously to respond strongly to the epitopes of LSA3-NRII or C57BL/6 mice which is poorly responsive. Negative and positive controls received respectively, the non-lipidated polypeptide administrated by IN and S.L. route, or the same lipid-tailed polypeptide injected subcutaneously (S.C.) without adjuvant
Individual blood samples were obtained via the retro-orbital plexus by 9 to 15 days post immunization (dpi) and sera were stored at −70 iC until assayed for IgG, IgA and IgM polypeptide- and parasite-specific Abs. The presence of anti-peptide antibodies in sera was determined using Enzyme-linked immunosorbent assay (ELISA) as reported previously (BenMohamed et coll., 1997). ELISA plates (Nunc, Roskilde, Denmark) were coated overnight at 4 iC with 0.1 ml of LSA3-NRII or LSA1-J polypeptide solution at 3 μg/ml in PBS buffer pH 7.4 containing 3% BSA. The LSA1-J polypeptide was used as the irrelevant control of LSA3-NRII and vice versa. The plates were washed twice in PBS with 0.01% Tween-20 (PBS-T), blocked for 1 hr in PBS-T supplemented with 1% BSA prior to the addition of 0.1 ml of 1/100 dilution of mouse sera. The plates were then incubated at 37 iC for one hour. After washing, the bound IgG were detected using peroxidase-conjugated goat anti-mouse IgG (Biosys, Compiégne, France) added at a 1/2000 dilution. Following incubation at 37° C. for 1 hour and a final wash, 50 μl of 0.30% H2O2 containing orthophenylenediamine dihydrochloride (OPD, Sigma, St Louis), dissolved in 0.1 M citrate buffer (pH 5.0) were added to each well at room temperature. The OD450 nm was measured using a multichannel spectrophotometer (Titertek Multiskan MCC. 340). Individual sera from all groups were diluted 1/100 and analyzed separately. […] Isotype analysis of mouse was carried out using class specific alkaline phosphatase-conjugated Goat anti-Mouse IgA, IgM, IgG1, IgG2a, IgG2b or IgG3 HRP-Labeled (Southern Biotechnology Associates, Birmingham, USA) added at a 1/2000 dilution in PBS-T, as previously described (BenMohamed et coll., 1997).
(ELISA stands for enzyme-linked immunosorbent assay.)

*: point of attachment. Palmitoyl = CCCCCCCCCCCCCCCC(=O)*

Experimental findings from patent publication US20030166542A1, “Systemic immune response induced by mucosal administration of lipid-tailed polypeptides without adjuvant” (INSTITUT PASTEUR, priority 1999, published 2003) are described below.

In the case of “Ac-LEESQVNDDIFNSLVKSVQQEQQHNVK(Pam)NH2 (Ac-LEESQVNDDIFNSLVKSVQQEQQHNVK(Palmitoyl)-NH2; SMILES CCCCCCCCCCCCCCCC(=O)NCCCC[C@H](NC(=O)[C@@H](NC(=O)[C@H](CC(N)=O)NC(=O)[C@H](Cc1c[nH]cn1)NC(=O)[C@H](CCC(N)=O)NC(=O)[C@H](CCC(N)=O)NC(=O)[C@H](CCC(=O)O)NC(=O)[C@H](CCC(N)=O)NC(=O)[C@H](CCC(N)=O)NC(=O)[C@@H](NC(=O)[C@H](CO)NC(=O)[C@H](CCCCN)NC(=O)[C@@H](NC(=O)[C@H](CC(C)C)NC(=O)[C@H](CO)NC(=O)[C@H](CC(N)=O)NC(=O)[C@H](Cc1ccccc1)NC(=O)[C@@H](NC(=O)[C@H](CC(=O)O)NC(=O)[C@H](CC(=O)O)NC(=O)[C@H](CC(N)=O)NC(=O)[C@@H](NC(=O)[C@H](CCC(N)=O)NC(=O)[C@H](CO)NC(=O)[C@H](CCC(=O)O)NC(=O)[C@H](CCC(=O)O)NC(=O)[C@H](CC(C)C)NC(C)=O)C(C)C)[C@@H](C)CC)C(C)C)C(C)C)C(C)C)C(N)=O) [LSA3-NRII lipid-tailed polypeptide, palmitoyl lipid-tailed polypeptide derived from P. falciparum LSA-3]”, the “mean titers of IgG antibodies, mucosal routes versus S.C. route” value (BALB/c and C3H/HeJ, p<0.05) is “significantly higher than those recorded by S.C. route”. Under “C57BL/6 strain, mucosal or subcutaneous administration”, the antibody response result is recorded as “No antibody response”. For the same substance, the “polypeptide-specific antibody responses in serum (ELISA)” value (I.N. or S.L. administration, BALB/c and C3H/HeJ, two weeks after second administration, no adjuvant) is “high titers”. For the same substance, the “polypeptide specific antibody titers, sub-lingual versus intranasal groups” value (p<0.05 in BALB/c, p<0.01 in C3H/HeJ) was “significantly higher in sub-lingual immunized groups than in intranasal groups”.
